Data published in the supplement of paper PMC4466236.
In all, about 33,000 sequences were measured (“E-score (dimensionless, -0.5 to 0.5)”: median about -0.058, highest 2% from about 0.35 on). This is one part of the list.

tested on: MvaT; assay: PBM 8-mer E-score (mean of HK and ME arrays) (E-score (dimensionless, -0.5 to 0.5)); higher = stronger relative binding preference; most listed sequences are background and not binding sites
Method in brief: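 Full-length P. aeruginosa MvaT, with glutathione S-transferase fused to its N-terminus (cloned into pTH6838 by isothermal assembly), was tested by protein binding microarray using a previously described protocol. Two universal double-stranded 60-mer arrays (ME and HK) were used, each with a constant 25-mer primer region and a variable 35-mer region covering all 8-mers. The rank-based 8-mer E-score (-0.5 to 0.5) is the mean of the two arrays, parsed with a custom Python script.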

Row | Sequence | PBM 8-mer E-score
1 | GTAACAAA | 0.205
2 | CACTGACC | -0.15
3 | CTCTCAAC | -0.159
4 | AGTTCGAA | 0.239
5 | CTTCGGTA | -0.0193
6 | AGACAAAT | 0.166
7 | CTTCGCTA | -0.089
8 | TCAGAGAA | -0.032
9 | CGATTACC | -0.0813
10 | AGGCTAAG | -0.0142
11 | ACCGTATC | -0.173
12 | CATATAAG | 0.35
13 | ATGCTGAA | 0.0334
14 | AAGCCATC | -0.28
15 | ATCGCGCA | -0.00115
16 | GAACACAA | 0.105
17 | GTCATCAC | -0.143
18 | GCCTCTCC | -0.28
19 | AATATTAG | 0.394
20 | TCCTTAGA | -0.0864
21 | CACGTCCA | -0.161
22 | AGACCTGA | -0.143

Row | Sequence | PBM 8-mer E-score
23 | ATTAGTTA | 0.335
24 | CAGCCGAC | -0.18
25 | TAGGGAGA | -0.211
26 | AGGCGTGC | -0.207
27 | ATTCAGTG | 0.125
28 | AGACTATC | 0.0256
29 | ACAGTAGG | -0.0165
30 | AGCGCACG | -0.181
31 | CGTCAGTA | -0.0255
32 | AAAACGAG | -0.122
33 | AGGTTTAA | 0.15
34 | GAGGGAGC | -0.357
35 | CCGGCGAG | -0.216
36 | TGATATAA | 0.353
37 | ACTGCTTG | -0.0798
38 | ACTACAGA | 0.104
39 | ATCCCCTG | -0.172
40 | GCATGAAA | 0.0774
41 | CGCCCTGA | -0.181
42 | CTGGTATC | -0.0511
43 | ACGATCTG | -0.0774
44 | AGCAGGGC | -0.242

Row | Sequence | PBM 8-mer E-score
45 | GCACCGCC | -0.175
46 | AAGACATT | 0.154
47 | GATCGGTA | 0.00837
48 | ACATGGAG | -0.0517
49 | ATAATTAA | 0.456
50 | AGCATCAC | -0.113
51 | ACAAGTGT | 0.0313
52 | GAGCTCCA | -0.28
53 | AACTACAT | 0.208
54 | ACTTCTAT | 0.228
55 | CCTCCAGG | -0.333
56 | CACAAACC | 0.0517
57 | ATGCACGA | -0.132
58 | CTCAGGAC | -0.232
59 | GACCGCAA | -0.0752
60 | GCGGTTCA | 0.0149
61 | GCAACCTA | -0.0596
62 | CCCCCAAG | -0.341
63 | AGCCGAAC | -0.112
64 | CCAGCACG | -0.226
65 | ACATTCCT | 0.075
66 | CATCTCTA | -0.0258

Row | Sequence | PBM 8-mer E-score
67 | AAGAACCG | -0.0221
68 | ACGAACAG | -0.0615
69 | GCCAAAAA | -0.0483
70 | ATAAACAC | 0.296
71 | CGCCGATC | -0.257
72 | TGGGACAA | 0.0643
73 | GGCGTAAA | 0.0143
74 | ATTGAGAA | 0.141
75 | ACCGTCGA | -0.144
76 | CGTCCATC | -0.223
77 | CGAAGATC | -0.0561
78 | AGTGGTAA | -0.0328
79 | ACCTGTCG | -0.277
80 | CGTCGAAG | -0.138
81 | CTAAATAC | 0.232
82 | CTTGATGA | -0.0826
83 | TGACTAAA | 0.186
84 | AAAAGGCT | -0.126
85 | ACTAGGTA | -0.0523
86 | CCGACATA | -0.000617
